The values below come from the supplement of paper PMC11417369.

The list shows a part of the results.

The experiment has as its system PfHDP1 homeodomain (GST-tagged). Put plainly: gcPBM binding intensity (ln(normalized median fluorescence intensity)); higher = stronger DNA binding. The method, boiled down:
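The binding buffer was 1× PBS containing 1% milk, 0.2 mg/ml BSA, 0.5% salmon testes DNA and 0.03% Triton X-100. In it, GST-tagged P. falciparum DNA-binding domains expressed in E. coli were applied for 1 h to an Agilent 4 × 180k array of primer-extended double-stranded 36-bp intergenic genomic probes plus negative controls. Binding intensity, read with Alexa488 anti-GST antibody and a 488 nm scan, is the highest Masliner-normalised natural-log median intensity across replicate spots of either probe orientation.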
For “ATATATTATGAAGACTGTACATTTACATGAAAAAAA [XGTACX_site7203]”, the “gcPBM binding intensity (ln)” value worked out at 6.5. Consider “CACCCCCACAGACACACACACACACCCATATATATA [CACACA_site364]”, for which the “gcPBM binding intensity (ln)” value was 7.09. Take “AAGATTCATTGGTTCTGTACAAAATAAACACTATAA [XGTACX_site834]”: the “gcPBM binding intensity (ln)” value worked out at 6.68. With “TTAATTGACATAAAAAGTACTCATATAGATATGCAC [XGTACX_site6391]”, the “gcPBM binding intensity (ln)” value was found to be 6.73.

As to “AAATGTTAATAAAGGTGTACACAAAATAAAAAAAAT [XGTACX_site463]”, the “gcPBM binding intensity (ln)” value worked out at 7.71. As to “AAAAAGAACAGAAACACACAAATAAAATAAAATTGT [CACACA_site6921]”, the “gcPBM binding intensity (ln)” value came to 6.41. On to “TAATTTTATTTTATATGTACGCAATACAAATATATA [XGTACX_site8461]”, for which the “gcPBM binding intensity (ln)” value amounted to 6.13.

With “TTTATTTAAAAAGTTTGTACATATATATTATTTTGA [XGTACX_site6040]”, the “gcPBM binding intensity (ln)” value was determined as 6.3. Take “CATATATAAATATATACACACATACATACATACATA [CACACA_site5988]”: the “gcPBM binding intensity (ln)” value amounted to 6.62. With “ATATTATAGTTATGAACATGCAAACATTACGAAATA [TGCATGCA_site54]”, the “gcPBM binding intensity (ln)” value is 6.77.

Take “AATTTATTATTTTATTGTACGTATTTTTTTTTTTAT [XGTACX_site2298]”: the “gcPBM binding intensity (ln)” value was 6.37. On to “AAAAAATATTAGACTTATAAAGCATAAAGGATATTA [GTGCAC_negctrl_site588]”, for which the “gcPBM binding intensity (ln)” value was found to be 6.27. Regarding “AAATGACATTTCAAAAGTACATATTTAATTAATTAA [XGTACX_site2919]”, the “gcPBM binding intensity (ln)” value worked out at 6.16. Consider “TTTATATATATAATATGTACACATAATAATAATACA [XGTACX_site4862]”, for which the “gcPBM binding intensity (ln)” value turned out to be 6.49. Regarding “ATATATAATTAATTTTGTACACATAAAAAAAAAAAT [XGTACX_site6647]”, the “gcPBM binding intensity (ln)” value turned out to be 6.6. With “AGAGAGAAAGCTATAACATGCAACAATTTTTTGAAA [TGCATGCA_site514]”, the “gcPBM binding intensity (ln)” value is 6.48. For the sequence “ATATCTTATAATACGGTGCACTTGACATGAACAACT [GTGCAC_site9987]”, the “gcPBM binding intensity (ln)” value came to 10.3. With “ATATTTGCATGTGGTAGTACATAACATTCTTTTACA [XGTACX_site8194]”, the “gcPBM binding intensity (ln)” value came to 7.13. “CTTCAATTAAAATTCACACATATAAATTAAAATATT [CACACA_site6129]”: the “gcPBM binding intensity (ln)” value was 6.04. As for “ATAAAAAAGAAACAAACACACATACATACAAACAAA [CACACA_site4256]”, the “gcPBM binding intensity (ln)” value was determined as 6.89. Take “AAATAGAGAAATACAAGTACATATCAAACCAATATA [XGTACX_site1192]”: the “gcPBM binding intensity (ln)” value is 6.25. As for “CTTTTGTCATTCTTTTGTACACAGTTTGAAATATGT [XGTACX_site1457]”, the figure is 6.93; as for “ATAATAAATAAATAATGTACATATGAAAGAATAAAT [XGTACX_site8355]”, 7.34; as for “TCATATATTTTAATATGTACACATTTTTTTGGTATA [XGTACX_site8695]”, 6.22.

“TACAGACTAAAATACACACACACACGCACATATATA [CACACA_site7875]”: the “gcPBM binding intensity (ln)” value was found to be 7.33. Regarding “TTTTTCTTTATTAGCACACATAATATTATATATGTG [CACACA_site2629]”, the “gcPBM binding intensity (ln)” value worked out at 7.1. For the sequence “TACATTTATATATATACACACACACTAATAAAAAAA [CACACA_site8845]”, the “gcPBM binding intensity (ln)” value was determined as 7.01.

On to ATATGTATATATAAGGTGCAGAAAGGTGGGCAAAAG, for which the “gcPBM binding intensity (ln)” value was 9.15. On to “TAAATACAGATATATACACACATATATATATTTTAT [CACACA_site5970]”, for which the “gcPBM binding intensity (ln)” value was determined as 6.54. “ATTATTTGTTTAATGAGTACGAAGACAAATTTTACC [XGTACX_site5223]”: the “gcPBM binding intensity (ln)” value amounted to 6.8. For the sequence “TATATACACAGACACACACACACATACACGCACATA [CACACA_site6909]”, the “gcPBM binding intensity (ln)” value was 7.92.

Turning to “GTACTATACAAAGATGATAATCAATATATATATATA [XGTACX_negctrl_site264]”, the “gcPBM binding intensity (ln)” value came out at 9.11. “AAAGGAAAAAAAAGCACACACAATATTACTTGAAAT [CACACA_site2588]”: the “gcPBM binding intensity (ln)” value was found to be 6.9.

For “ATATAAACAATATTTTGTACATAATTTTATGAGCAT [XGTACX_site6933]”, the “gcPBM binding intensity (ln)” value was found to be 6.63. Take “AAAGAAAGAAGAAATTGTACATAATAAATAAGTAAA [XGTACX_site3311]”: the “gcPBM binding intensity (ln)” value was found to be 6.25. “GCATATGTTTATTGCACACACCAAAAAGAAAACATA [CACACA_site4384]”: the “gcPBM binding intensity (ln)” value stood at 10.5. Consider ATTCTTTTAAAATAGGTGCTAAAAATAATATGTTAC, for which the “gcPBM binding intensity (ln)” value was 7.19. As for “TTCACCAGTTGGTAAACATGCAATTTTCCATACAAG [TGCATGCA_site267]”, the figure is 6.4; as for “AAAAAAAACGGACACACACACATACCCATACATACA [CACACA_site5574]”, 6.69; as for “ATATAAATACATAAATGTACTTACCATTTAAATATG [XGTACX_site5254]”, 6.28. On to “CAAACAATTAAACAAACACACATATACAAGTATTTA [CACACA_site5177]”, for which the “gcPBM binding intensity (ln)” value stood at 6.37. As for “TATATTTACTTATGAAGTACATATATATATATATAT [XGTACX_site5069]”, the “gcPBM binding intensity (ln)” value was 9.37.

On to “TGTTCTTTTTATACTACACACTGATAAAAAAACAAA [CACACA_site3001]”, for which the “gcPBM binding intensity (ln)” value was found to be 6.75.

Turning to “TTTAAGTTTTTACTTTGTACGTATTATAATAAAATC [XGTACX_site5683]”, the “gcPBM binding intensity (ln)” value is 6.45. For “TTTAAAACCTTACATACACACAAATATATATATATA [CACACA_site677]”, the “gcPBM binding intensity (ln)” value was 9.19.

As for “AATGCTATCATTAATGCACACATTTAAAATTAATAT [CACACA_site3548]”, the “gcPBM binding intensity (ln)” value is 10. As for “ATAATAAAAAATACAAGTACACATATTATATATATA [XGTACX_site5355]”, the figure is 7.56; as for “ACATCAAGCAGACACACACACACACCCACCCACCCA [CACACA_site8012]”, 6.5. Take “CAGGCACTAATAAACACACACATATAAATATAAATA [CACACA_site6320]”: the “gcPBM binding intensity (ln)” value came to 6.58. Next, “TTTTTTTTTTTTTTTTGTACTCATACATACTATCAT [XGTACX_site3650]”: 6.19; “AATTTCTACTATTGTATGCACTTTCATACATACATA [GTGCAC_site9924]”: 7.53; “AACACAAGAACAGAACGTACACACACATATATATAT [XGTACX_site7347]”: 8.73. Take “AGGTGTGAGACCACGTTCACAAAATAAAATACATAA [CACACA_negctrl_site326]”: the “gcPBM binding intensity (ln)” value was 6.36. As for “GCTTGAATAATCAATAGTACACACATATAAATATAT [XGTACX_site5964]”, the figure is 6.55; as for “TTTATTTTCATATGAACACACATATTTATATTATAA [CACACA_site7165]”, 7.01; as for “TACAATCTAAGGAGCACACAAAAATGGATAAATATA [CACACA_site933]”, 6.69.

As for “TAATAAAAGAAAAAAAGTACAGACATATTGAATTTT [XGTACX_site5044]”, the “gcPBM binding intensity (ln)” value was 6.16.
